According to paper PMC12136788:
Substitutions are numbered along the chain they refer to. The list shows a part of the results.

B1: chr13:46895483:46895906:-|CDS|ENSG00000102468|control|control|control (ssRNA)
RNA: GGGAGUUCUACAGUCCGACGAUCAGUGUCCCUAGAGAAAAAGCUGCAGAAUGCCACCAACUAUUUCCUGAUGUCACUUGCCAUAGCUGAUAUGCUGCUGGGUUUCCUUGUCAUGCCCGUGUCCAUGUUAACCAUCCUGUAUGGCAACAGAGGAUUGAGCAUCA
B2: chr22:41245667:41245769:-|3pUTR|ENSG00000100401|msi1|total|mutant (ssRNA)
RNA: GGGAGUUCUACAGUCCGACGAUCCAAUGUCCGAGCUGCAUCUGGACGCUGCUCUUAAAGGACCUCCUGGGGCAGGGGAGCGGCCGGGUCUGGACUGGGCAGAUGCUGUAUGACCUCCCUGAGCACCCGUGACUGCCCCAUGCUCAACAGAGGAUUGAGCAUCA
B3: ENSG00000070961:be:win_1301|CDS|ENSG00000070961|bound_else_gene|NA|bound_elsewhere_windowed (ssRNA)
RNA: GGGAGUUCUACAGUCCGACGAUCGUCUUCCACUUGCAGUCACGAUCUCACUGGCUUAUUCAGUCAAAAAAAUGAUGAAAGAUAAUAACUUAGUAAGGCAUCUGGAUGCUUGUGAAACCAUGGGAAAUGCUACAGCUAUUUGUUCAACAGAGGAUUGAGCAUCA
B4: chr1:54850123:54850236:-|3pUTR|ENSG00000116133|msi1_unk|total|mutant (ssRNA)
RNA: GGGAGUUCUACAGUCCGACGAUCGCCUCCAACCCUAAGCCACUGGGACGGUGGCCAGAGAUGCCAGCAGCCUCUGUCGCCCUCCGUCAUAUAACCAAAAUCCAGACCUUAUCCACAACCCGGGGCUUGGAAAGGAAGGUAUUUCAACAGAGGAUUGAGCAUCA
B5: chr12:132722103:132722204:+|3pUTR|ENSG00000247077|msi1|total|mutant (ssRNA)
RNA: GGGAGUUCUACAGUCCGACGAUCGCUUCGCCUUUGACCUUCAUGCUGGUCUCGGCUGAGGUGACACGCCCGUGACAGCCCAACCGGGGGUUACCCUUAUUGAGUAAAAUACUUCAGAUUGACAGCUCAAUCUCCGUUUGCCUCCAACAGAGGAUUGAGCAUCA
B6: chr3:122768741:122768856:-|CDS|ENSG00000169087|unk|total|mutant (ssRNA)
RNA: GGGAGUUCUACAGUCCGACGAUCACAUGUAAUUACGCCGAAGCUACACUCGAAGAGUUUCUGACCUGGAACUGUGACCAGUCCCGUAUUUCUGGACCAUUCCGAGAUUAUGACCAUUCCAAGUUCUGGGCUUAUGCUGACUAUCAACAGAGGAUUGAGCAUCA
B7: chr17:47658542:47658643:+|CDS|ENSG00000108424|unk|total|mutant (ssRNA)
RNA: GGGAGUUCUACAGUCCGACGAUCGAUUCUGACUGCCAUAAUCCAGGGGAUGAGGAAAGAAGAGCCCCGUAAUAAUGUGAAGCCCGCUGCUACGAAUGCACUCCUGAACUCAUUGGAGUUCACCAAAGCAAACUUUGAUAAAGACAACAGAGGAUUGAGCAUCA
B8: chr21:42850051:42850242:-|CDS|ENSG00000160193|control|control|control (ssRNA)
RNA: GGGAGUUCUACAGUCCGACGAUCCACGUUCGACAACGUGACCUCCUACCUGAAGAAGAAAGAGGAGAGACUGCAGCAGCAGCUAGAGAAGAAGCAGCGGCGCCGGAGUCCCCCGCCUGGGCCCGACGGGCAUGCCAAGAAGAUCAACAGAGGAUUGAGCAUCA
B9: chr10:62096657:62096758:+|3pUTR|ENSG00000150347|msi1|FALSE|unique (ssRNA)
RNA: GGGAGUUCUACAGUCCGACGAUCACCUCUAUGCUCUGUAAGGUGAUUAUUUGUAUAUAGCAACAUGGCCCAGUGAUAUUAUAUAGUUUCCCAAUGGAGAGGUUAUUGAGUAACCUUUGCAUUAGUUUAAACACUACCAGAAGACAACAGAGGAUUGAGCAUCA
B10: ENSG00000127022:stop:overlap|stop_codon|ENSG00000127022|stop_codon|NA|stop_codon (ssRNA)
RNA: GGGAGUUCUACAGUCCGACGAUCACACAUUUUGUUUUACCAAGCUGAAGGUACAUUUAUGUAAAGGGAAUAUUUUAAUAGGGUAGUUUACAGUGGCUUAUGGCAGUAAAAAUUCUGUUAAAGCCAAUUUUGUUGAAGUGGGAUCAACAGAGGAUUGAGCAUCA
B11: chr17:59607285:59607386:+|3pUTR|ENSG00000108406|unk|total|mutant (ssRNA)
RNA: GGGAGUUCUACAGUCCGACGAUCUAAAUCAAAGCUCAUCAGUUCCCAUAAAUGCAGUUGUCAAAGAAAAGAUUUGGUUGCCACCGUCAUAAGCAAUGAUACAUGAAACCAAUGAAAGACAGUACAUGUAAUAAUAUUUUCCUCCAACAGAGGAUUGAGCAUCA
B12: chr1:23094017:23094118:-|CDS|ENSG00000169641|unk|FALSE|unique (ssRNA)
RNA: GGGAGUUCUACAGUCCGACGAUCCUCCAGAAAGCAGAGGAUGAACUCCUGGAUCUCCAGGACAAGGUGAUUCAGGCAGAAGGUAGCAACUCCAGCAUGUUGGCGGAGAUUGAAGUGCUGCGCCAGCGGGUGCUGAGAAUUGAACAACAGAGGAUUGAGCAUCA
B13: chr3:11298707:11298833:+|CDS|ENSG00000197548|unk|total|mutant (ssRNA)
RNA: GGGAGUUCUACAGUCCGACGAUCAUAAUGGCGGCAGCUACGGGGGAUCCUGGACUCUCUAAACUGCAGUUUGCCCCUUUCCGCCGUGCCUUGGAUGUUGGGUUUUGGCAUGAGUUGACCCAGAAGAAGCUGAACGAGUAUCGGCAACAGAGGAUUGAGCAUCA
B14: chr2:96373863:96373964:+|3pUTR|ENSG00000121152|unk|total|mutant (ssRNA)
RNA: GGGAGUUCUACAGUCCGACGAUCCCGAACUGGCAAAAUAUUUGAGUGUCCACCCGAUGAGUAUCAGACCCCGUCCUUACCCUCCGGGGGAUGCAGUCCUGGUUGUUAUCCAGGAUACACACCUGUCAGUAUAAGGCAGAAGAUCAACAGAGGAUUGAGCAUCA
B15: chr14:52864448:52864598:-|CDS|ENSG00000073712|unk|FALSE|unique (ssRNA)
RNA: GGGAGUUCUACAGUCCGACGAUCGAUGGCAGCCUGCAGAUUAGCCUCCAAAGGCAAGACCAUGGCGGACAGUUCUUACAACUUAGAAGUUCAGAAUAUUCUUUCCUUUCUGAAGAUGCAGCAUUUAAACCCAGAUCCUCAGUUCAACAGAGGAUUGAGCAUCA
B16: chr11:108172639:108172748:-|CDS|ENSG00000149308|unk|FALSE|unique (ssRNA)
RNA: GGGAGUUCUACAGUCCGACGAUCGUUAUCAUUAGUGAUGAUCCAUUUGUUUCCUCAGAUACUGAACUUACCAGUGCUGUUUCUAGUAUUAAUGGAGAAAACCUGCCAACUAUAAUCUUGUCUUCUCCUACUAAAUCACCUACUCAACAGAGGAUUGAGCAUCA
B17: chr1:22120052:22120517:-|CDS|ENSG00000162552|control|control|control (ssRNA)
RNA: GGGAGUUCUACAGUCCGACGAUCGUGCCACGCAACGCACAGUUCAAGCCGCACACAGAUGAGGACCUGGUGUACUUGGAGCCUAGCCCCGACUUCUGUGAGCAGGACAUGCGCAGCGGCGUGCUGGGCACGAGGGGCCGCACACAACAGAGGAUUGAGCAUCA
B18: chr6:145805060:145805161:-|CDS|ENSG00000118496|unk|total|mutant (ssRNA)
RNA: GGGAGUUCUACAGUCCGACGAUCAGAAGAUCCUAUGGGCCUCCAAGGAACCGAUCUGAUCACAGCAGCAUUGCUUUUUUGUCCCGGAGAUUCUCCAGGAGGGAGGGGUAUAUCUGACCGCCGCAUGGCUGAUAUUUAUCACAUCAACAGAGGAUUGAGCAUCA
B19: chr9:35056615:35056731:-|3pUTR|ENSG00000165280|msi1|FALSE|unique (ssRNA)
RNA: GGGAGUUCUACAGUCCGACGAUCCCCUAUCCAACCUGGGUAGGUGGGUAGGGGCCACAGUUGCUGGAUGUUUAUAUAGAGAGUAGGUUGAUUUAUUUUACAUGCUUUUGAGUUAAUGUUGGAAAACUAAUCACAAGCAGUUUCCAACAGAGGAUUGAGCAUCA
B20: chr2:25742488:25742589:-|CDS|ENSG00000143970|unk|FALSE|unique (ssRNA)
RNA: GGGAGUUCUACAGUCCGACGAUCCACUUUAAGUAAGGAGAAUUACCUGUUCACUAGAGGCCAAACAUUUGAUGAAAAGACCCUAGCCAGAGAUUUAAUUCAGGCAGCACAGAAGCAGAUGGCUCAUGCAGUGAGAGGUAAGGCCAACAGAGGAUUGAGCAUCA
B21: ENSG00000114354:stop:overlap|stop_codon|ENSG00000114354|stop_codon|NA|stop_codon (ssRNA)
RNA: GGGAGUUCUACAGUCCGACGAUCCAGCCGCAGGCUCCACCUCAGCAGCCUCAACAGUAUGGUAUUCAGUAUUCAGCAAGCUAUAGUCAGCAGACUGGACCUCAACAACCUCAGCAGUUCCAGGGAUAUGGCCAGCAACCAACUCAACAGAGGAUUGAGCAUCA
B22: chr3:11298707:11298833:+|CDS|ENSG00000197548|unk|FALSE|unique (ssRNA)
RNA: B13 RNA with C80U, C81A, C83U, C84A

These binders were tested against T1, UNK ZnF1-6 (called full-length) (human, UniProt Q9C0B0 30-357) (assay: nsRBNS (natural sequence RNA bind-n-seq); RBNS binding buffer (assumed for nsRBNS): 25 mM Tris pH 7.5, 150 mM KCl, 3 mM MgCl2, 0.01% Triton X-100, 500 ug/ml BSA, 20 U/ml SUPERase-In, 4 C; UNK is unkempt and MSI1 is Musashi-1; names of the RNAs are library labels; protein concentration not given here; high values mean tight binding).
T1 sequence: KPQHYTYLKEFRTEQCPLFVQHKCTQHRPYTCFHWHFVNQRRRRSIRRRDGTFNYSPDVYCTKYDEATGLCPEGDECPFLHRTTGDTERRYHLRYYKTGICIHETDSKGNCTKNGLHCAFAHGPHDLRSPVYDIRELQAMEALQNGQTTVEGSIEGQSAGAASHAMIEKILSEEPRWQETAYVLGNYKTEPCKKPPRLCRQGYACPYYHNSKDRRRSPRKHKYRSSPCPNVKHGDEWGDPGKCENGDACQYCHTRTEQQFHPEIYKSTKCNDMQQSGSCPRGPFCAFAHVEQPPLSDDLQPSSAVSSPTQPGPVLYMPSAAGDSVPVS

Row | Binder | binding signal
1 | B1 | 0.647 enrichment R
2 | B2 | 0.615 enrichment R
3 | B3 | 0.382 enrichment R
4 | B4 | 1.11 enrichment R
5 | B5 | 0.374 enrichment R
6 | B6 | 0.54 enrichment R
7 | B7 | 0.614 enrichment R
8 | B8 | 0.8 enrichment R
9 | B9 | 0.888 enrichment R
10 | B10 | 0.76 enrichment R
11 | B11 | 0.384 enrichment R
12 | B12 | 0.513 enrichment R
13 | B13 | 0.839 enrichment R
14 | B14 | 0.443 enrichment R
15 | B15 | 0.725 enrichment R
16 | B16 | 0.572 enrichment R
17 | B17 | 0.813 enrichment R
18 | B18 | 0.653 enrichment R
19 | B19 | 0.815 enrichment R
20 | B20 | 0.627 enrichment R
21 | B21 | 1.05 enrichment R
22 | B22 | 1.67 enrichment R
